According to the supplement of paper PMC12645437, “Orthogonal IMiD-Degron Pairs Induce Selective Protein Degradation in Cells” (ACS Chemical Biology, 2025):
Some of the results follow.

Target: no compound (DMSO)
Experiment: log2 fold change of degron read counts, EGFP-low vs EGFP+ sorted cells; higher = lower degron-EGFP level without compound (poor expression or instability)
Details: compound: DMSO control; 18 h
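Further: jurkat cells carrying a lentiviral library of mutant zinc finger degrons fused to EGFP plus mCherry, mCherry+ cells FACS sorted, degron abundance counted by next-generation sequencing.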

Sequence	log2 fold change of degron read counts
FGCPVCGADFTQKGNLLRHIKL	-0.618
FCCEICGRKFTQKGNLLRHIKL	-3.08
FRCNVCGAAFTQKGNLLRHIKL	0.21
FLCEICGHRFTQKGNLLRHIKL	-1.81
FACPICGRMFTQKGNLLRHIKL	0.0703
FYCPICGRMFTQKGNLLRHIKL	-3.09
FQCEICGHQFTQKGNLLRHIKL	-2.15
FLCEICGRVFTQKGNLLRHIKL	-1.86
FCCNQCGHMFTQKGNLLRHIKL	-0.475
FICEICGRAFTQKGNLLRHIKL	-2.49
FMCPICGAEFTQKGNLLRHIKL	-0.357
FSCNQCGRLFTQKGNLLRHIKL	-0.491
FSCEICGRYFTQKGNLLRHIKL	-0.526
FLCNVCGAWFTQKGNLLRHIKL	0.661
FHCEQCGASFTQKGNLLRHIKL	-2.33
LFCNQCGFECTQKGNLLRHIKL	0.457

Sequence	log2 fold change of degron read counts
LMCPICGFGCTQKGNLLRHIKL	1.36
FFCPICGREFTQKGNLLRHIKL	-0.322
LTCEICGFRCTQKGNLLRHIKL	-0.245
FRCPVCGAEFTQKGNLLRHIKL	-0.985
FWCEICGHMFTQKGNLLRHIKL	0.143
LLCPICGFSCTQKGNLLRHIKL	0.462
FICNVCGANFTQKGNLLRHIKL	-0.575
FQCPICGRPFTQKGNLLRHIKL	-0.121
FTCNICGAAFTQKGNLLRHIKL	-0.272
LSCNQCGFGCTQKGNLLRHIKL	0.816
FTCDICGAPFTQKGNLLRHIKL	-0.696
FGCDVCGARFTQKGNLLRHIKL	-1.7
FLCSVCGHNFTQKGNLLRHIKL	-0.358
FKCNQCGAFFTQKGNLLRHIKL	0.113
FACPICGRGFTQKGNLLRHIKL	-0.0959
FFCEICGRLFTQKGNLLRHIKL	0.405
